Among all 150,000 compounds or so, about 540 (0.36%) showed an effect of 50% or more. The list shows a part of the results.

The assay deals with Plasmodium falciparum. Briefly: Primary screen in NF54 nanoGlo assay, in single point, at 2uM, 72h; a lower Z score goes with more inhibition. The format is functional, Erythrocyte. The conditions noted are these: timepoint 72 hour.
For the molecule `C[C@H]1c2cccn2CCN1CC(=O)N1CCN(S(=O)(=O)c2ccc3ccccc3c2)CC1`, the “% Inhibition” value was -43% and the Z score worked out at 5.05.
Taken in the same sequence, the figures for `Cc1csc(CN(C[C@H]2CCCO2)C(=O)c2cc(O)cc(O)n2)n1` were -8% and 1.59.
On to `COc1cc(OC)cc(-c2cc(-c3ccc(C)o3)nc(N)c2C#N)c1`, for which the “% Inhibition” value is -2% and the Z score came to 0.45.
For the molecule `COCCn1cnc2cc(NC(=O)C3CCCCC3)cc(C(=O)N3CCN(C(C)C)CC3)c21`, the “% Inhibition” value is reported as -13% and the Z score was 1.87.
Taken in the same sequence, the figures for `COc1ccc(NC(=O)CCC(=O)NCc2ccco2)cc1` were 34% and -4.43.
Taken in the same sequence, the figures for `CC[C@H](NCC(F)(F)F)c1nc(C)cs1` were -10% and 1.49.
With `CCN(CC)c1onc(-c2ccccc2)c1CN(CCN(C)C)C(=O)c1ccc(Cl)cc1`, the “% Inhibition” value is 6% and the Z score was -0.8.
Taken in the same sequence, the figures for `Cc1nn(C)c(C)c1CC(=O)N1CCc2cccc(F)c21` were 2% and -0.2.
Take `NCCOc1cccc(Br)c1`: the “% Inhibition” value is given as -30% and the Z score came out at 2.72.
As to `Cc1nn(C)c(Cl)c1CN(C)C[C@H](C)N1CCOCC1`, the “% Inhibition” value is recorded as -1% and the Z score was determined as 0.12.
`O=C(Cn1cnnn1)N[C@@H]1COCC[C@@H]1Oc1cccc(F)c1`: the “% Inhibition” value is recorded as -8% and the Z score is 1.23.
As for `Cc1nnc(NC(=O)Nc2ccccc2)nc1C`, the “% Inhibition” value was -4% and the Z score came to 0.56.
Taken in the same sequence, the figures for `CC(C)C[C@H](NC(=O)NC1CCCC1)C(=O)O` were 0% and 0.
With `O=C(CC1CCCCC1)N1CC2CN(S(=O)(=O)c3cccc(F)c3)CC(C1)O2`, the “% Inhibition” value was -3% and the Z score was 0.28.
In the case of `COc1cc(NC(=O)N2CCC(c3nc(=O)[nH][nH]3)CC2)ccc1F`, the “% Inhibition” value was 4% and the Z score is listed as -0.75.
Consider `O[C@@H]1COCc2nc3ccccc3n2C1`, for which the “% Inhibition” value is -3% and the Z score was 0.43.
On to `Cn1ncc2ccc(N3C(=O)c4ccccc4C3=O)cc21`, for which the “% Inhibition” value is listed as -2% and the Z score amounted to 0.23.
Taken in the same sequence, the figures for `O=C(C[C@@H]1N=C(O)N(Cc2ccccc2)C1=O)Nc1n[nH]c(CCc2ccccc2)n1` were 17% and -2.07.
As to `O=C(CCc1ccc(S(=O)(=O)N2CCCC2)cc1)NC1CCCC1`, the “% Inhibition” value is on record as -1% and the Z score amounted to 0.08.
Taken in the same sequence, the figures for `O=C(CNC(=O)Cc1ccccc1)NCCC1=CCCCCC1` were -7% and 1.17.
As to `CN(C)Cc1cc(CN(C)C)c(O)c(CCc2ccccc2)n1`, the “% Inhibition” value is reported as 7% and the Z score was -1.36.
Taken in the same sequence, the figures for `CN(C)CCN(Cc1ccsc1)C(=O)[C@@H]1CCC[C@H](O)C1` were -14% and 2.65.
The corresponding values for `N#C[C@@H]1COCCN1Cc1ccc2ccccc2n1` are 0% and 0.01.
For the molecule `CC(C)=CCCNC(=O)N1CCO[C@H](c2nc(C)cs2)C1`, the “% Inhibition” value is given as -11% and the Z score stood at 1.21.
The corresponding values for `CO[C@H]1[C@H](NC(=O)c2ccsc2)c2ccccc2C12CCN(Cc1cccc(F)c1F)CC2` are -6% and 0.79.
Taken in the same sequence, the figures for `CCCc1noc(CN(CCC#N)C2CCOCC2)n1` were 1% and -0.13.
The corresponding values for `Cc1cc(CNS(=O)(=O)c2c(C)noc2C)no1` are -7% and 1.29.
`Cc1cccc(-c2ccc3nc(-c4ccc(F)cc4)c(CN4CCN(C(=O)c5cccs5)CC4)n3c2)c1`: the “% Inhibition” value is -11% and the Z score is given as 2.12.
The corresponding values for `CC(C)C(=O)N1C[C@@H]2CN(C(=O)COc3ccc(F)cc3)C[C@]2(CO)C1` are -17% and 2.22.
Take `CC(=O)NC(C)C(=O)NC(Cc1ccc(F)cc1)C(C)C` (stereo unspecified): the “% Inhibition” value is recorded as 7% and the Z score is given as -1.28.
The corresponding values for `COc1ccc(-c2[nH]nc3nc(-c4ccc(C)cc4)cc(C(=O)NCc4ccc(F)cc4)c23)cc1` are -3% and 0.26.
Regarding `CCN1CCCC[C@@H]1CNc1nc(OC)cc(OC)n1`, the “% Inhibition” value worked out at 4% and the Z score was -0.7.
`Cc1ccc(C2=NC3(CCN(Cc4ccccc4)CC3)N[C@H](c3cc(Cl)ccc3O)C2)cc1C`: the “% Inhibition” value was 3% and the Z score is given as -0.65.
The corresponding values for `CC(C)(C)c1nc(CN2CCNC(=O)C2)cs1` are -3% and 0.52.
Taken in the same sequence, the figures for `CN(C(=O)Cn1ccc(=O)[nH]c1=O)[C@H]1CCCN(Cc2ccccc2)C1` were 5% and -0.73.
The corresponding values for `CC(C)S(=O)(=O)CCNC(=O)Nc1ccccc1C1CC1` are 4% and -0.58.
With `Cc1ccc(C)c([C@H](C)NC(=O)CN2CCN(c3cnn(C)c(=O)c3)CC2)c1`, the “% Inhibition” value is listed as -9% and the Z score came out at 0.84.
The corresponding values for `Cc1ccc(-c2cc(C(=O)NC3CCCC(C)C3C)c3ccccc3n2)cc1C` (stereo unspecified) are -2% and 0.29.
The corresponding values for `N#CC1C(=O)Nn2c(N)nc(-c3ccccc3)c2C1c1ccccc1` (stereo unspecified) are 28% and -3.22.
The corresponding values for `CC(C)(CNC(=O)N1CCC(C(F)(F)F)C(CN)C1)C1=CCCCC1` (stereo unspecified) are 7% and -0.75.
In the case of `CCCn1nccc1C(=O)N[C@H]1CC2(CCCCC2)Oc2ccccc21`, the “% Inhibition” value is reported as -8% and the Z score was found to be 1.25.
For the molecule `Cc1ccc(S(=O)(=O)NCc2ccco2)cc1C(=O)Nc1ccccn1`, the “% Inhibition” value is 1% and the Z score is listed as -0.16.
As for `Cn1ccnc1-c1ccccc1C(=O)NCc1nc(-c2cnccn2)n[nH]1`, the “% Inhibition” value is reported as -3% and the Z score is reported as 0.46.
The corresponding values for `CN1CCN(C(=O)c2ccccc2N2CCC(NC(=O)c3ccc(Cl)cc3)CC2)CC1` are -8% and 1.48.
The corresponding values for `CN1C[C@@]2(CCCN(C(=O)NCc3cncn3C3CC3)CC2)OC1=O` are -10% and 1.92.
Taken in the same sequence, the figures for `Cc1nc(N2CCC[C@H](C(=O)NC3CC3)C2)nc2cc(S(C)(=O)=O)ccc12` were -3% and 0.43.
On to `CO[C@@H](Cn1cnnc1Nc1cccnc1)C1CCCC1`, for which the “% Inhibition” value is reported as -8% and the Z score came to 1.42.
In the case of `Cc1ccccc1NC(=O)N1CCC(n2cnc3c(Cl)cccc3c2=O)CC1`, the “% Inhibition” value is 10% and the Z score is -1.16.
Taken in the same sequence, the figures for `CCCNc1cc(N2CCC(CCC(=O)N(C)Cc3cn(C)nc3C)CC2)ncn1` were 27% and -3.02.
Taken in the same sequence, the figures for `Cc1cc(C)n(CC(=O)Nc2ccc3c(c2)OCO3)c(=O)c1-c1nc(-c2ccccc2)no1` were -10% and 1.41.
The corresponding values for `COc1cnc(C(=O)N[C@H]2CCCc3cnn(C(C)C)c32)nc1` are -6% and 0.92.
`CCS(=O)(=O)c1ccccc1CC(=O)N(C)c1ccc(C)nn1`: the “% Inhibition” value is -4% and the Z score stood at 0.81.
Turning to `CN(CC(=O)Nc1sc2c(c1C(N)=O)CCCC2)Cc1cccs1`, the “% Inhibition” value is -11% and the Z score is recorded as 1.45.
The corresponding values for `Fc1ccc([C@@]2(CNCc3ccc(C(F)(F)F)nc3)CCOC2)cc1` are -21% and 1.82.
Take `Cc1nn(C2CCCC2)c2nc(-c3cc(CN(C)C)cs3)[nH]c12`: the “% Inhibition” value stood at 69% and the Z score is -9.28.
For the molecule `COc1ccc(C(=O)N2CC[C@H](N(C)C)[C@H](CCC(=O)O)C2)cc1Cl`, the “% Inhibition” value is recorded as -2% and the Z score is on record as 0.44.
`O=C(Cn1c(=O)n(C2CCCCC2)c(=O)c2cccnc21)Nc1cccc(C(F)(F)F)c1`: the “% Inhibition” value is listed as -17% and the Z score amounted to 2.25.
Taken in the same sequence, the figures for `Cc1noc(CCCC(=O)N2CCOC[C@@H]2CC2CCC2)n1` were 0% and 0.06.
The corresponding values for `O=C(C1CCCC1)N1CC[C@](O)(c2ccccc2)[C@H](N2CCCC2)C1` are 2% and -0.23.
For `Cc1csc(CN(C)S(=O)(=O)N2CCN(C)CC2)n1`, the “% Inhibition” value was -8% and the Z score was 1.25.
With `C[C@]1(c2noc(C3CCOCC3)n2)CCCN(C(=O)c2ccncc2)C1`, the “% Inhibition” value is recorded as -5% and the Z score is reported as 0.75.
The corresponding values for `COc1cccc(NC(=O)c2ccc3c(c2)nnn3Cc2ccc(C)cc2)c1` are -13% and 1.28.
The corresponding values for `O=C(CCC1CCN(Cc2cccc(Oc3ccccc3)c2)CC1)NC[C@H]1CCCO1` are 1% and -0.09.
For `Cc1ccc(NC(=O)c2cc(N3C(=O)C4CCCCC4C3=O)ccc2N2CCCCC2)cc1` (stereo unspecified), the “% Inhibition” value was -6% and the Z score was 0.75.
Taken in the same sequence, the figures for `Cc1nc2c(C#N)cnn2c2c1CCN2Cc1cccc(Cl)c1` were -17% and 2.54.
For the molecule `c1ccc(-c2cc(-c3ccccc3)c3nonc3c2-c2ccccc2)cc1`, the “% Inhibition” value is -2% and the Z score amounted to 0.19.
Taken in the same sequence, the figures for `Cc1csc([C@@H](NCc2ncc(C)o2)C2CC2)n1` were -4% and 0.51.
The corresponding values for `CCOC(=O)C1CCC(CN(Cc2ccc(OC)cc2)S(=O)(=O)c2cc(C(=O)Nc3ccc(OCC)cc3)ccc2F)CC1` (stereo unspecified) are 36% and -4.61.
Consider `C[C@H]1CCCN(S(=O)(=O)NCCc2ccc3c(c2)OCO3)C1`, for which the “% Inhibition” value is given as -3% and the Z score is 0.6.
The corresponding values for `CC(=O)N(Cc1ccco1)Cc1cc(NC(=O)C2CCC2)ccc1N(C)C` are 5% and -0.68.
On to `O=C(COc1ccccc1)N1CCC2(CC1)C[C@@H](N1CCOCC1)CCO2`, for which the “% Inhibition” value is -14% and the Z score is recorded as 1.86.
Taken in the same sequence, the figures for `CCc1ccccc1N1C(=O)c2cc(-c3ccco3)nn2C[C@@]1(C)C(=O)NCc1ccc(C)cc1` were -5% and 0.82.
The corresponding values for `O=C(NC1CC1)c1ccc2ccccc2n1` are -6% and 0.52.
`C[C@]1(CNC(=O)c2ccc3c(c2)CCCC3)CCCO1`: the “% Inhibition” value is -3% and the Z score is 0.62.
The corresponding values for `O=C(c1cccc(F)c1)N1CCCc2cnc(N3CCOCC3)nc21` are -18% and 2.02.
Taken in the same sequence, the figures for `COc1ccc(S(=O)(=O)N2C[C@@H](C(=O)Nc3cccc(OC)c3)Oc3cc(C)ccc32)cc1` were -19% and 2.75.
With `COC1CN(CCOc2cccc(C#N)c2)CC1OC` (stereo unspecified), the “% Inhibition” value is 14% and the Z score is listed as -1.76.
For the molecule `Cc1ccc(CNC(=O)N2CCC[C@H](Cc3nncn3CC3CC3)C2)cc1`, the “% Inhibition” value is listed as -7% and the Z score stood at 0.88.
Regarding `O=C(NC[C@H]1CCCN(C(=O)C2CC=CC2)C1)c1ccncc1`, the “% Inhibition” value stood at 6% and the Z score is on record as -1.03.
Regarding `Cc1ccc2[nH]c(C3CN(C(=O)c4c(-c5ccccc5Cl)noc4C)C3)nc2c1`, the “% Inhibition” value was -13% and the Z score was found to be 2.38.
Turning to `Cc1cc(NC(=O)Cc2cccc(F)c2)sn1`, the “% Inhibition” value is listed as -3% and the Z score stood at 0.49.
The corresponding values for `O=C(Nc1nccs1)Nc1nccs1` are -7% and 1.1.
The corresponding values for `COc1ccccc1C(O)Cn1cc(C(=O)NC(C)c2cccnc2)nn1` (stereo unspecified) are -8% and 1.61.

Broadly, the % Inhibition is the relative decrease from the control value, in per cent.

The values are drawn from ChEMBL document CHEMBL4888484, “Replenishing the malaria drug discovery pipeline: Screening and hit evaluation of the MMV Hit Generation Library 1 (HGL1) against asexual blood stage Plasmodium falciparum ,using a nano luciferase reporter read-out” (2022).
